Measurements: PubChem BioAssay AID720542 (National Center for Advancing Translational Sciences (NCATS), 2013)
Out of some 360,000 compounds screened, about 740 (0.21%) were called active. The inconclusive results got no clear call from the source; some entries with a clear call stand among them for comparison. Calls come from the whole dose curve; as a rule, active = well fitted inhibition curve with a large enough effect; inconclusive = small, poorly fitted or top-dose-only effect; inactive = no such curve, though single readings can be large or run the other way. No potency is given beside an inconclusive call; the fits are too rough.

test system: Plasmodium falciparum AMA1 (3D7) - RON2 peptide interaction; assay: qHTS for Inhibitors of AMA1-RON; Towards Development of Antimalarial Drug Lead: Primary Screen; settings: AlphaScreen AMA1-biotinylated RON2 peptide binding; activity change, negative = inhibition: at 58.2 µM (top of the series) unless noted; note: nearly all actives have a fitted effect of over 45% in size;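 for activity change, negative = inhibition: 0% = vehicle wells and -100% = peptide control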
Summary of the method: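 AMA1 (3D7) with his tag at 25 nM final met compounds first, then biotinylated RON2 peptide at 25 nM; detection used donor plus acceptor beads, 10 µg/mL apiece, read by AlphaScreen after 30 min at room temperature.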
Potency is the fitted concentration of half-maximal effect; tags give direction and shape of the fitted curve.

Question: `Cn1ncc(Cl)c1C(=O)Nc1ccc(Cl)cn1` was tested. Which “activity change, negative = inhibition” value did it give?
Answer: inactive: -9.32%

Question: For `CCC(O)(C(=O)Nc1ccccc1C(F)(F)F)c1ccccc1OC` (stereo not drawn), which “activity change, negative = inhibition” value is on record?
Answer: inactive: 10.8%

Question: How did the Potency turn out when `O=C(C1CCCN(Cc2ccccc2F)C1)N1CCCC1` (stereo not drawn) was run?
Answer: inconclusive [inhibitor, single point]

Question: `NS(=O)(=O)c1cccc(NC(=O)CSc2nnc(-c3ccccc3F)n2C2CC2)c1` was tested. Which Potency did it give?
Answer: inconclusive [inhibitor, full curve, poor fit]

Question: How did the Potency turn out when `CC1CCCN(C2=C(NS(=O)(=O)c3ccc(Br)cc3)C(=O)c3ccccc3C2=O)C1` (stereo not drawn) was run?
Answer: inconclusive [inhibitor, full curve]

Question: How did the Potency turn out when `CCc1ccc(NS(=O)(=O)c2ccc3[nH]cc(C(=O)N4CCCCC4)c(=O)c3c2)cc1` was run?
Answer: inconclusive [inhibitor, full curve]

Question: How did the Potency turn out when `COc1cc(OC)c(OC)cc1CN1CCN(Cc2ccc(C(F)(F)F)cc2)CC1` was run?
Answer: inconclusive [inhibitor, partial curve]

Question: For `COc1ccc(N(CC(=O)Nc2ccc(S(=O)(=O)N3CCCCC3)cc2)S(C)(=O)=O)cc1OC`, which Potency is on record?
Answer: inconclusive [inhibitor, single point]

Question: How did the “activity change, negative = inhibition” value turn out when `O=C(O)C1Cc2[nH]cnc2C(c2ccccc2O)N1` (stereo not drawn) was run?
Answer: inactive: 25%

Question: Which “activity change, negative = inhibition” value does the source give for `Cc1cccc(NC(=S)NC(=O)CCc2ccccc2)c1` here?
Answer: inactive: -2.09%

Question: Which “activity change, negative = inhibition” value does the source give for `COc1ccc(-c2nc(NC(=O)C3CCN(c4nc5ccccc5o4)CC3)sc2C)cc1` here?
Answer: inactive: -2.92%

Question: With `O=C(NCc1ccco1)c1ccc2c(c1)N(Cc1ccc(Cl)cc1)CCS2` as the compound, how does the Potency read?
Answer: inconclusive [inhibitor, single point]

Question: Which Potency does the source give for `CN(C)c1ccc(-c2ccnc3c2CC(C)(C(=O)NCCC(F)(F)F)O3)cc1` (stereo not drawn) here?
Answer: inconclusive [inhibitor, single point]

Question: With `S=c1[nH]nc(-c2ccc3ccccc3n2)o1` as the compound, how does the “activity change, negative = inhibition” value read?
Answer: inactive: -10.2%

Question: How did the Potency turn out when `O=C1c2cccc3c(Nc4ccccc4Cl)c([N+](=O)[O-])cc(c23)C(=O)N1CCO` was run?
Answer: inconclusive [inhibitor, single point]

Question: How did the “activity change, negative = inhibition” value turn out when `O=C(Cn1nc(C(=O)O)c2ccccc2c1=O)Nc1cc(S(=O)(=O)N2CCOCC2)ccc1Cl` was run?
Answer: inactive: 3.22%

Question: For `COc1ccc(/C=C2/SC(=S)N(CC(=O)O)C2=O)cc1OCc1ccc(Cl)cc1`, which “activity change, negative = inhibition” value is on record?
Answer: inactive: -12.4%

Question: With `CN(O)/C=c1/ccc2c(n1)C(=O)C=CC=2` as the compound, how does the Potency read?
Answer: inconclusive [inhibitor, single point]

Question: With `O=C(O)CCCC(=O)N1CCC(C(O)(c2ccccc2)c2ccccc2)CC1` as the compound, how does the “activity change, negative = inhibition” value read?
Answer: inactive: 23.1%

Question: With `O=c1cc(-c2ccc(O)c(O)c2)oc2cc(O[C@@H]3O[C@H](CO)[C@@H](O)[C@H](O)[C@H]3O)cc(O)c12` as the compound, how does the Potency read?
Answer: inconclusive [inhibitor, full curve, poor fit]

Question: For `COc1ccc(CCNCC2C(Oc3ccc(Cl)cc3)C(=O)N2c2ccccc2C)cc1OC` (stereo not drawn), which Potency is on record?
Answer: inconclusive [inhibitor, single point]

Question: `COc1cc(C)ccc1OCCOCCOc1cccc2ccc(C)nc12` was tested. Which Potency did it give?
Answer: inconclusive [inhibitor, single point]

Question: How did the Potency turn out when `CN1CCN(S(=O)(=O)c2ccc(Nc3cccc(Cl)c3)c([N+](=O)[O-])c2)CC1` was run?
Answer: inconclusive [inhibitor, single point]

Question: With `COc1c(-c2ccc(O)c(O)c2)oc2cc(O)cc(O)c2c1=O` as the compound, how does the Potency read?
Answer: inconclusive [inhibitor, partial curve]

Question: With `COc1ccc(C(CNC(=O)c2cccc(N(C)C)c2)N2CCCC2)cc1` (stereo not drawn) as the compound, how does the Potency read?
Answer: inconclusive [inhibitor, single point]

Question: How did the Potency turn out when `COCCn1c(SCc2cccnc2)nnc1-c1ccco1` was run?
Answer: inconclusive [inhibitor, single point]

Question: `Cc1ccc(/C=C/c2onc(C)c2S(=O)(=O)N2CCC(C(=O)N3CCCCC3)CC2)cc1` was tested. Which “activity change, negative = inhibition” value did it give?
Answer: inactive: -8.08%

Question: `Oc1c(CN2CCN(c3ccccn3)CC2)cc(Cl)c2cccnc12` was tested. Which Potency did it give?
Answer: inconclusive [inhibitor, single point]

Question: With `O=C(CSc1ccc2nnc(-c3ccccn3)n2n1)Nc1ccccc1C(F)(F)F` as the compound, how does the Potency read?
Answer: inconclusive [inhibitor, partial curve]

Question: `C/C(=N\NC(=O)c1ccccc1-n1cccc1)c1ccccn1` was tested. Which “activity change, negative = inhibition” value did it give?
Answer: inactive: 66.5%

Question: For `COc1ccc(Cl)cc1NC(=O)CN1CCc2ccccc21`, which Potency is on record?
Answer: inconclusive [inhibitor, partial curve]

Question: Which Potency does the source give for `O=C(c1ccc2c(c1)OCO2)N1CCN(c2ccccc2F)CC1` here?
Answer: inconclusive [inhibitor, single point]

Question: `CCOC(=O)CCCc1sc(N)nc1-c1[nH]c(=O)[nH]c1C` was tested. Which Potency did it give?
Answer: active: 1.5 µM

Question: `COc1ccc(NC(=O)CSc2n[nH]c(-c3ccccn3)n2)cc1` was tested. Which Potency did it give?
Answer: inconclusive [inhibitor, partial curve, poor fit]

Question: How did the Potency turn out when `CCc1ccc(/C=C2\SC(=S)N(CCCC(=O)N3CCN(C)CC3)C2=O)cc1` was run?
Answer: inconclusive [inhibitor, partial curve]

Question: Which “activity change, negative = inhibition” value does the source give for `COc1ccc(C(=O)OCC(=O)N(C)C2CCS(=O)(=O)C2)cc1Br` (stereo not drawn) here?
Answer: inactive: 14.8%

Question: How did the “activity change, negative = inhibition” value turn out when `NC1=CC(=O)C(=O)c2ccccc21` was run?
Answer: inactive: -1.76%

Question: `CCCn1c(C(C)NC(=O)c2ccccc2)n[nH]c1=S` (stereo not drawn) was tested. Which “activity change, negative = inhibition” value did it give?
Answer: inactive: 28.1%

Question: How did the Potency turn out when `CC(=O)NC1C(=O)N(CCN2CCOCC2)c2ccc(Cl)cc21` (stereo not drawn) was run?
Answer: inconclusive [inhibitor, single point]

Question: `Cc1ccc(-c2c(C#N)c(N)nc3c2CCCCC3)o1` was tested. Which “activity change, negative = inhibition” value did it give?
Answer: inactive: -7.97%

Question: `COc1ccc(C(CCNCc2ccc(N(C)C)cc2)c2ccccc2)cc1` (stereo not drawn) was tested. Which Potency did it give?
Answer: active: 20 µM

Question: Which Potency does the source give for `O=C1c2ccccc2C(=O)c2c1oc(C(F)(F)F)c2C(=O)c1ccccc1` here?
Answer: inconclusive [inhibitor, partial curve]

Question: How did the Potency turn out when `O=C(NC1CC1)C1CCN(S(=O)(=O)c2cc([N+](=O)[O-])ccc2Cl)CC1` was run?
Answer: inconclusive [inhibitor, partial curve]

Question: Which Potency does the source give for `CCOc1ccccc1NC(=S)N(CCCN1CCOCC1)Cc1cn(C)c2ccccc12` here?
Answer: inconclusive [inhibitor, partial curve]

Question: With `COc1cc2c(cc1OC)CN(c1nc(CN3CCOCC3)nc3sc4c(c13)CCCC4)CC2` as the compound, how does the Potency read?
Answer: inconclusive [inhibitor, single point]

Question: With `O=C(OCc1c(F)cccc1Cl)c1cc([N+](=O)[O-])ccc1N1CCOCC1` as the compound, how does the Potency read?
Answer: inconclusive [inhibitor, partial curve]

Question: `CC(=O)c1ccc(NC2=C(N3CCOCC3)C(=O)c3ccccc3C2=O)cc1` was tested. Which Potency did it give?
Answer: inconclusive [inhibitor, partial curve]

Question: Which Potency does the source give for `COc1ccc(-c2csc(Nc3ccccc3)[n+]2Cc2ccccc2)cc1` here?
Answer: inconclusive [inhibitor, partial curve]

Question: `CN(C)c1ccc(NC(=S)N2CCN(c3ncc(C(F)(F)F)cc3Cl)CC2)cc1` was tested. Which Potency did it give?
Answer: inconclusive [inhibitor, full curve]

Question: Which Potency does the source give for `Oc1ccccc1-c1nc(N2CCN(Cc3ccccc3)CC2)c2ccccc2n1` here?
Answer: inconclusive [inhibitor, single point]

Question: `CN1C2CCC1/C(=C/c1cccn1C)C(=O)/C2=C\c1cccn1C` was tested. Which Potency did it give?
Answer: inconclusive [inhibitor, partial curve]

Question: How did the Potency turn out when `Cc1ccccc1N1CCN(C(=S)c2ccc([N+](=O)[O-])cc2)CC1` was run?
Answer: inconclusive [inhibitor, partial curve]

Question: With `Oc1ccc(CCNc2c3ccccc3nc3ccccc23)cc1O` as the compound, how does the Potency read?
Answer: inconclusive [inhibitor, full curve, poor fit]

Question: With `COc1ccc2c(c1)C(C)=CC(C)(C)N2C(=O)CNCc1ccc2c(c1)OCO2` as the compound, how does the Potency read?
Answer: inconclusive [inhibitor, single point]

Question: For `COc1ccccc1N1CCN(c2nc(C)nc3c2oc2ccccc23)CC1`, which Potency is on record?
Answer: inconclusive [inhibitor, single point]

Question: For `CCOc1cc(/C=C2/NC(=O)N(Cc3ccccc3F)C2=O)ccc1O`, which “activity change, negative = inhibition” value is on record?
Answer: inactive: -0.367%

Question: How did the Potency turn out when `CCN(CC)C(=O)[C@H]1C[C@H](CC(=O)NC/C=C(\C)CCC=C(C)C)C(=O)N2CCc3c([nH]c4cc(-c5ccco5)ccc34)[C@]12C` was run?
Answer: inconclusive [inhibitor, single point]

Question: How did the Potency turn out when `O=C(O)c1cnn2c(C(F)F)cc(C3CC3)nc12` was run?
Answer: inconclusive [inhibitor, single point]

Question: `C/C(=N/Nc1ccnc2cc(Cl)ccc12)c1ccc(N)cc1` was tested. Which Potency did it give?
Answer: inconclusive [inhibitor, single point]

Question: `CN(C)CCCN(C(=O)CCc1ccccc1)c1nc2ccc(Cl)cc2s1` was tested. Which Potency did it give?
Answer: inconclusive [inhibitor, partial curve]

Question: With `CCOc1ccc(NC(=O)c2cnsn2)cc1` as the compound, how does the “activity change, negative = inhibition” value read?
Answer: inactive: 59.7%

Question: With `COc1cc2cnc(-c3ccccc3)c(-c3ccc([N+](=O)[O-])cc3)c2cc1OC` as the compound, how does the “activity change, negative = inhibition” value read?
Answer: inactive: 1.74%

Question: With `O=C(O)c1cccc(N2C(=O)/C(=C/c3ccc([N+](=O)[O-])cc3)C=C2c2ccccc2)c1` as the compound, how does the Potency read?
Answer: inconclusive [inhibitor, single point]

Question: How did the Potency turn out when `Cc1ccc(-c2nnc(Nc3ccc4c(c3)OCO4)c3ccccc23)cc1S(N)(=O)=O` was run?
Answer: inconclusive [inhibitor, partial curve]

Question: With `O=C(NCc1cccnc1)c1cc(C2CCCCN2C(=O)c2ccc3c(c2)CCO3)on1` (stereo not drawn) as the compound, how does the “activity change, negative = inhibition” value read?
Answer: inactive: 2.96%

Question: `O=C(CSc1ccc2nnc(-c3ccccn3)n2n1)Nc1ccccc1F` was tested. Which “activity change, negative = inhibition” value did it give?
Answer: inactive: 1.89%

Question: With `Cc1ccc(S(=O)(=O)N2CCN(C(=O)Cn3cnc4c3c(=O)n(C)c(=O)n4C)CC2)cc1C` as the compound, how does the “activity change, negative = inhibition” value read?
Answer: inactive: -12.4%

Question: With `COc1ccc(-c2cc(C(=O)N3CCN(c4ccccc4)CC3)no2)cc1` as the compound, how does the Potency read?
Answer: inconclusive [inhibitor, single point]
